Reference: paper PMC10903983, “Inducing mitochondriopathy-like damages by transformable nucleopeptide nanoparticles for targeted therapy of bladder cancer” (National Science Review, 2024)

Tested on: T24 xenograft mice
Assay: In vivo antitumor evaluation with SN-38 and T-ATP controls, T24 xenograft
Details: 24 days post-injection; SN38 5 mg/kg; T-ATP and NLS-FF-T 500 μM in 200 μL PBS
Description: Fig. S23. (a) Average tumor growth curves of T24 xenograft mice after treated with PBS, SN38 (5 mg/kg),
(b) Body weights of T24 xenograft mice after different
(1 picture or pasted object on this page, not shown here)

Structure (SMILES): CCc1c2c(nc3ccc(O)cc13)-c1cc3c(c(=O)n1C2)COC(=O)[C@]3(O)CC [SN38, SN-38]
- tumor growth / antitumor efficacy: moderate antitumor efficacy
